Results on 55 compounds are retold here after ChEMBL document CHEMBL4888484, “Replenishing the malaria drug discovery pipeline: Screening and hit evaluation of the MMV Hit Generation Library 1 (HGL1) against asexual blood stage Plasmodium falciparum ,using a nano luciferase reporter read-out” (2022).

The assay deals with Plasmodium falciparum. The assay can be described thus: Primary screen in NF54 nanoGlo assay, in single point, at 2uM, 72h; a lower Z score goes with more inhibition. Format: functional, Erythrocyte. The conditions noted are these: timepoint 72 hour.

Several values for one entry are separate records, joined by “and”; a condition that tells them apart may be missing. Equal values may be shown once. Hit rate of the full screen: of about 150,000 compounds, about 540 (0.36%) showed an effect of 50% or more. Some of the results follow.

As usually defined, the % Inhibition is the change of the read-out against control, counted positive when it falls. Take `CN(C)C(=O)c1ccc(N(C)C2Cc3ccccc3C2)nc1`: the “% Inhibition” value was -4% and the Z score is on record as 0.37. Turning to `CO[C@H]1COC[C@@H]1NC(=O)c1ccncc1Cl`, the “% Inhibition” value is recorded as -3% and the Z score was 0.31. For `CCc1cc(C(=O)N2C[C@@H]3CC[C@H]2CN(Cc2ccc(OC)cc2)C3)ccn1`, the “% Inhibition” value is given as -10% and the Z score is given as 1.05. Take `CCCCn1nc(Cc2ccc(OC)cc2)nc1C1(O)CCN(C)CC1`: the “% Inhibition” value is reported as -2% and the Z score is 0.41. The matching figures for `COc1ccc(-c2nc(CCS(=O)(=O)c3ccc(Cl)cc3)no2)cc1OC`: -8% and 0.8. As to `Cc1ccc(S(=O)(=O)NC2CC2)cc1C(=O)Nc1cccc(C#Cc2ccccn2)c1`, the “% Inhibition” value is reported as -5% and the Z score stood at 0.56. The matching figures for `O=S(=O)(Nc1cnc2c(Br)cccn12)c1ccc(C(F)F)cc1`: -8% and 0.92. `Cn1nc(-c2cccs2)cc1C(=O)N[C@H]1CCN(c2nccn3cnnc23)C1`: the “% Inhibition” value was -11% and the Z score is 1.47.

For `c1ccc2c(c1)CN(c1nc(C3CC3)ns1)C[C@@H]2n1cccn1`, the “% Inhibition” value is on record as -23% and the Z score stood at 2.39.

As for `O=C1O[C@H](C(=O)Nc2ccc3c(c2)OC2(CCCCC2)O3)Cc2ccccc21`, the “% Inhibition” value is reported as -4% and the Z score was 0.47. Turning to `CCN(CC)C(=O)C[C@@H]1CCNC[C@@H]1Cc1cc(C(C)(C)C)on1`, the “% Inhibition” value is given as -14% and the Z score is reported as 2.27.

As to `CCc1nc(C)c(CN2CCC[C@H](S(=O)(=O)N(C)C)C2)o1`, the “% Inhibition” value is listed as -19% and the Z score is reported as 2.05. As to `CC[C@](O)(CNS(=O)(=O)CC)c1ccc(Br)cc1`, the “% Inhibition” value is recorded as 3% and the Z score is listed as -0.25.

Turning to `O=C(c1ccc(Cl)cc1)N1CCN(c2ccc(-c3cccs3)nn2)CC1`, the “% Inhibition” value was 7% and the Z score is recorded as -0.89. On to `CCc1cc(C(=O)N2C[C@H](NC(=O)N(C)C)[C@@H](C(C)C)C2)cs1`, for which the “% Inhibition” value was -8% and the Z score was 1.09.

For `c1coc(CNCc2cccc3ccccc23)c1`, the “% Inhibition” value (2 µM) is -1% and -5%.

In the case of `CCc1noc(C)c1C(=O)N1CC[C@@]2(CCCN(Cc3cccc(C)c3)C2)C1`, the “% Inhibition” value came out at 6% and the Z score is -0.83. For `COc1cccc(C(=O)NCC(=O)N2CC[C@H](O)C23CCCC3)c1`, the “% Inhibition” value was -7% and the Z score was 0.98.

As to `N#Cc1cc(NCc2ccsc2)ccc1Cl`, the “% Inhibition” value was -3% and the Z score worked out at 0.63.

For the compound `Cc1nc(CCNc2cc([C@H]3C[C@@H](O)C3)nc(N)n2)sc1C`, the “% Inhibition” value was -3% and the Z score is given as 0.29.

With `CCN(CC)CCCNC(=O)c1ccc(-c2nc(CN3CCc4ccccc43)c(C)o2)cc1`, the “% Inhibition” value is 9% and the Z score is given as -1.21. For `CN(Cc1cc[nH]n1)C(=O)c1ccn(CC(F)(F)F)n1` the same measures were -3% and 0.5. For `Cn1cnc2cc(C(=O)N(c3ccc(F)cc3)C3CCCC3)cnc21` the same measures were -4% and 0.56. On to `Cc1n[nH]nc1C(=O)N1CC[C@H](Oc2ccccc2)C1`, for which the “% Inhibition” value is 1% and the Z score is -0.19. Take `COCCC(C)C(=O)NC1(CNC(=O)CC2CCCC(=O)N2)CCCCC1` (centres undefined): the “% Inhibition” value was 17% and the Z score is -2.1.

Take `Cc1nnc(CN2C[C@H](C)Oc3cc(C)c(Br)cc32)o1`: the “% Inhibition” value is listed as -5% and the Z score amounted to 0.49. The matching figures for `c1ccc2nc(N3CCCC4(CCNCC4)CC3)cnc2c1`: 8% and -1.23.

As for `CCCn1nc(C)cc1CN(C)C(=O)c1cn2ccccc2n1`, the “% Inhibition” value is listed as 4% and the Z score was -0.59. For `CCc1cccc(C)c1NC(=O)OCC(F)(F)F` the same measures were -9% and 0.78. `Cn1cc(Br)cc1C(=O)NC[C@H](O)c1ccco1`: the “% Inhibition” value was -3% and the Z score is 0.32.

As to `COc1ccccc1-c1ccc(C(=O)NC2CCN(Cc3ccccc3)CC2)c(N(C)C[C@H]2COCCO2)n1`, the “% Inhibition” value was 13% and the Z score is on record as -1.73. As for `Nn1ccc2c(nnc3ccnn32)c1=O`, the “% Inhibition” value was -11% and the Z score was determined as 1.43. As for `CNC[C@H]1CCCN1S(=O)(=O)c1cc(C)sc1C`, the “% Inhibition” value is given as -19% and the Z score is given as 2.25. For the compound `Cc1cc(C)n(C)c(=O)c1C(=O)NCc1cc(CC(C)C)on1`, the “% Inhibition” value is -8% and the Z score is reported as 1.3. Regarding `Cc1ccc(F)c(NC(=O)N2CC[C@H](OCCN3CCCCC3)C2)c1`, the “% Inhibition” value is -7% and the Z score is 0.94.

With `O=C1CN(C(=O)NCC2(C3CC3)CCC2)C2CCCCC2N1` (centres undefined), the “% Inhibition” value was -1% and the Z score came out at 0.18. With `Cn1nc(CC(N)=O)nc1-c1ccc(N2CCOCC2)cc1`, the “% Inhibition” value is -17% and the Z score worked out at 1.45. The matching figures for `CCOc1nc(NC[C@H]2CC[C@@H](CO)O2)ncc1Br`: -3% and 0.61. `CN(C(=O)C(=O)N1CCC2(CCOCC2)CC1)c1ccccc1`: the “% Inhibition” value is recorded as -1% and the Z score is 0.2. For `CNC(=O)c1cccnc1NC[C@@H]1COc2ccccc2C1` the same measures were -13% and 1.13. For `O=C1CCN(S(=O)(=O)c2cccc(F)c2)CCCCC[C@@H](C(=O)N2CCc3ccccc3C2)N1` the same measures were -13% and 2.56. `CC(C)Oc1ccc(C(=O)N2CC(C)(C(N)=O)C2)c(Cl)c1`: the “% Inhibition” value is reported as -1% and the Z score is 0.13. Regarding `COc1cc2c(cc1CN(C)Cc1noc(C)n1)OCCCO2`, the “% Inhibition” value is -15% and the Z score is recorded as 2.19. Turning to `Cc1ccc(-c2ncc(C(=O)N(C)Cc3ccccc3)c(N3CCC(C)CC3)n2)cc1`, the “% Inhibition” value is -2% and the Z score came out at 0.33.

In the case of `CC1(C)NC(=O)N(CNc2ccc(Br)cc2)C1=O`, the “% Inhibition” value is recorded as 36% and the Z score is recorded as -4.63. For `O=C1CCc2cc(NC(=O)c3ccc(-c4ccccc4F)s3)ccc2N1`, the “% Inhibition” value is -7% and the Z score is 1.25.

Take `O=C(Cc1noc2ccccc12)N1CCn2nccc2C1`: the “% Inhibition” value is listed as -20% and the Z score was determined as 2.29. For `C[C@H]1CCCN(C(N)=NCCN(C)S(=O)(=O)c2cccs2)C1` the same measures were -4% and 0.48. For `Cn1c(CN2CCCC2)nnc1C1CCN(c2cnc3ccccc3n2)CC1` the same measures were -3% and 0.6.

Regarding `CCOc1cc(C(=O)N2CC3CCCC3C2)ccn1` (centres undefined), the “% Inhibition” value is -6% and the Z score turned out to be 0.73. For `COCCCCN(C)[C@@H](c1ccc(F)cc1)c1ncccn1`, the “% Inhibition” value is listed as -6% and the Z score is recorded as 1.08. As for `Cc1nn(CC(=O)N2CCNC(=O)C23CCCC3)c(C)c1Cl`, the “% Inhibition” value worked out at 3% and the Z score is listed as -0.39.

Consider `Nc1nc(CCNC(=O)c2ccccc2)n[nH]1`, for which the “% Inhibition” value is -17% and the Z score worked out at 1.92.

As for `CCC1=NO[C@@H](CNC(=O)Cc2csc(C)n2)C1`, the “% Inhibition” value turned out to be 2% and the Z score was -0.33. As to `COc1cnc(CN2CCC3(CC2)[C@H](O)C[C@@H]3OC)cc1O`, the “% Inhibition” value is recorded as -2% and the Z score came out at 0.4.
